According to US9550792B2, “Polycyclic substituted pyrazole kinase activity inhibitors and use thereof” (priority 2013, dated 2017):

Test system: large cell lung cancer cell line H460
Experiment: Anti-tumor activity in vitro, MTT method
Details: Homo sapiens, NCI-H460, 48 h, read-out: H460 (IC50/μM)
Excerpt: The inhibitory activities against various cancer cell lines, such as breast cancer cell line MDA231, stomach cancer cell line MGC803, stomach cancer cell line BSG823, leukemia cell line K562, breast cancer cell line MCF-7, resistant breast cancer cell line MCF-7, leukemia cell line NB4, liver cancer cell line HEPG2, umbilical cord vein endothelium cell line HUVEC, lung cancer cell line A549, colon cancer cell line HCT116, large cell lung cancer cell line H460, liver cancer cell line 7721, lung cancer cell line H1229 and the like are determined with MTT method.
MTT method: the dehydrogenase associated with NADP in the mitochondria of living cell is capable of reducing exogenous MTT into insoluble bluish violet crystal (Formazan), which is precipitated in the cell. […] DMSO or Triple liquid (10% SDS-5% isobutanol-0.01 mol/L HCl) is used to dissolve the crystal in the cell. The OD determined at 570 nm by a microplate reader can reflect the amount of the living cell indirectly.
Procedures: the tumor cells in logarithmic growth phase are plated on 96 well plates and incubated for 24 h, to which is added the sample for screening (as for suspended cells, the sample can be added directly). […] The crystal is dissolved with DMSO and the detection is performed on a microplate reader.

O=C(NC1CCNCC1)c1[nH]ncc1NC(=O)c1c(Cl)cccc1Cl [AT-7519, reference compound] showed an IC50 of 5.63 µM.

In the case of CN1CCN(Cc2ccc(NC(=O)c3n[nH]cc3Nc3ncnc4sccc34)cc2)CC1 [Compound I-1, 4-(4-thieno[2,3-d]pyrimidinylamino)-N-(4-((4-methyl-1-piperazinyl)methyl)phenyl)-1H-3-pyrazole carboxamide], the IC50 is reported as 2.72 µM.
